Measured values: publication PMC4336329 (PLoS ONE, 2015)
The whole screen tested about 310,000 compounds, of which about 2,200 (0.71%) showed an effect of 50% or more. The effect is printed as a negative number. This is one part of the list.

Each compound was assayed against human ether-à-go-go-related gene (hERG) potassium channel (human, UniProt Q12809) (assay: primary screen, population patch clamp on CHO cells stably expressing hERG).
human ether-à-go-go-related gene (hERG) potassium channel, sequence (Q12809 whole entry, looked up): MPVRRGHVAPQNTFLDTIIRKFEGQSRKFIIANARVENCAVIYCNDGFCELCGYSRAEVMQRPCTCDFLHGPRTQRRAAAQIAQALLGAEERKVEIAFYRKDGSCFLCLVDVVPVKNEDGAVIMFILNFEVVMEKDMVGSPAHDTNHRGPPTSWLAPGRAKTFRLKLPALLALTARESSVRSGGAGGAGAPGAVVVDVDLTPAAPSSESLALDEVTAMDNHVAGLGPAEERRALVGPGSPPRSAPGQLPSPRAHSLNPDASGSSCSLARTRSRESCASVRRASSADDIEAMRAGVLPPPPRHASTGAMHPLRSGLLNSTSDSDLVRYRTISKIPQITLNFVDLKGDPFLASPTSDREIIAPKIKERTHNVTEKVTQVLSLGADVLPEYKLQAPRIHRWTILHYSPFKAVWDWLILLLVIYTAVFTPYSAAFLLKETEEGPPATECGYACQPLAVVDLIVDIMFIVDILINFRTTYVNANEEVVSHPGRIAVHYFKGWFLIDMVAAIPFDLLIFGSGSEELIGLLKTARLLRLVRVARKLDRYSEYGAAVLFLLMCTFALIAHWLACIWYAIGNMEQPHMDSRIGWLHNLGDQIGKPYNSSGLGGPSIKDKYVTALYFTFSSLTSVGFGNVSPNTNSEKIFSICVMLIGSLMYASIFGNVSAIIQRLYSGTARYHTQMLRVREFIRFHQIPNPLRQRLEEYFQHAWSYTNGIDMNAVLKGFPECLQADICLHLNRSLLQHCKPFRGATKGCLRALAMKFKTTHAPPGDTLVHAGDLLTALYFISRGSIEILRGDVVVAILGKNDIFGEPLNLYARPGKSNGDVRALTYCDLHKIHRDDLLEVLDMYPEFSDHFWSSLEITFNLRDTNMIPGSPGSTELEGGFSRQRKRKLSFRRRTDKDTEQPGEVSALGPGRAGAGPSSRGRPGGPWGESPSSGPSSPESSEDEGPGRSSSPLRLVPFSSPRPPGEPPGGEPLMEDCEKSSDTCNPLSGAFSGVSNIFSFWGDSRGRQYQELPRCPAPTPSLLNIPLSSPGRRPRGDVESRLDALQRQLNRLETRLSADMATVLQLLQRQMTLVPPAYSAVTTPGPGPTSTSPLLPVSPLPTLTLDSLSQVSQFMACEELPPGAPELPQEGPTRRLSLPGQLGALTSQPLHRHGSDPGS

Row | SMILES | hERG current change (%, negative = inhibition) at 1uM [%]
1 | CCc1cccc(NC(=O)CCS(=O)(=O)c2cc3c(cc2C)NC(=O)CO3)c1 | -1.32
2 | CCCCC(=O)Nc1sc(C(=O)N(CC)CC)c(C)c1C(=O)OC | 6.48
3 | O=C(NCc1ccccc1)C1=C[C@@H](C2CCCCC2)C[C@@H](OCCCCO)O1 | 12
4 | CCOc1ccc(-c2ccc(C=O)o2)c([N+](=O)[O-])c1 | 7.63
5 | CCC1(c2ccccc2)ON(c2c(Br)cccc2Br)C1=O (centres unmarked) | 17.3
6 | Cc1nc(C)c(C(=O)Nc2ncc([N+](=O)[O-])s2)o1 | 15.5
7 | CCN(C(=O)COC(=O)/C(=C/c1ccccc1)n1nnnc1C)C1CCCCC1 | 13.5
8 | Cc1ccc(CN2C(=O)CCSc3ccc(Cl)cc32)cc1 | 7.89
9 | Cn1c(N2CCN(C(=O)Nc3ccc(F)cc3)CC2)nc2ccccc21 | -21.9
10 | CCCc1[nH]n(-c2nc3ccccc3s2)c(=O)c1C=NCC(C)C | 6.14
11 | COc1ccc(C(=O)NCc2ccc3[nH]c(C)cc3c2)cc1OC | 0.152
12 | CN1C(=O)CSC1=Nc1ccc(F)cc1 | 17.6
13 | O=C1COc2ccc(S(=O)(=O)N3CCc4ccccc43)cc2N1 | -7.51
14 | O=C(NCCCO)C(=O)NCc1ccncc1 | 16.2
15 | CCn1c(C)nc2cc(C(=O)N/N=C/c3cccc(OC)c3O)ccc21 | 15.2
16 | O=C(C1=C(O)C(=O)N(Cc2ccccc2)C1c1ccco1)c1ccco1 (centres unmarked) | 24
17 | c1ccc(-c2cc3c(ccc4nonc43)nn2)cc1 | 13.6
18 | CN1/C(=C\C(=O)c2ccco2)C(C)(C)c2ccccc21 | 4.59
19 | CCOc1ncccc1C(=O)Nc1cccc(S(=O)(=O)NC2=NCCC2)c1 | 6.75
20 | Cc1ccc(S(=O)(=O)c2ccc([N+](=O)[O-])cn2)cc1 | 10
21 | Cc1ccccc1NC(=O)CN1C(=O)S/C(=C\c2ccc(-c3cccc(C(=O)O)c3C)o2)C1=O | 18.2
22 | CCCC(C(=O)NC(C)(C)C)N(Cc1ccccc1Cl)C(=O)c1snc(C(N)=O)c1N (centres unmarked) | 10.8
23 | COc1cccc(NC(=O)CCSc2nnc3scc(-c4ccccc4)n23)c1 | 6.91

Row | SMILES | hERG current change (%, negative = inhibition) at 1uM [%]
24 | COc1cccc(NC(=O)CSc2nc(=O)n(CCN(C)C)c3c2CCCC3)c1 | -12.6
25 | C=CCC1(C(=O)NCCO)CCN(C(=O)OC(C)(C)C)CC1 | 3.42
26 | Cc1cc(C)nc(NS(=O)(=O)c2ccc(NC(=O)c3cc4c(=O)n5cccc(C)c5nc4n3C)cc2)n1 | 14.3
27 | CC(C)=CC(=O)OCC(=O)Nc1cc([N+](=O)[O-])ccc1F | 10.5
28 | CCn1c(C(=O)N2CCC(C(=O)NCCCSC3CCCCC3)CC2)cc2sccc21 | -2.74
29 | O=C(N=Nc1c(O)[nH]c2ccccc12)c1cccc(S(=O)(=O)Nc2ccccc2Cl)c1 | 0.81
30 | CCOC(=O)c1c(-c2ccccc2)oc2cc(Br)c(O)cc12 | 3.57
31 | CN(C)CCC(O)(c1ccccc1)c1ccccc1.Cl | -9.15
32 | C=CCNC(=O)c1cnc2n(c1=O)CCS2 | 12.2
33 | COc1cccc(/C=N/NC(=O)N/N=C/c2cccc(OC)c2O)c1O | 15.7
34 | COc1ccc(CCNC(=O)Nc2cc(F)c(F)cc2Cl)cc1OC | 23.3
35 | CCOc1ccc(C(=O)NCCc2ccccc2)cc1 | 14.2
36 | CCOP(=O)(OCC)C(Nc1ccc(OC)cc1)c1ccco1 (centres unmarked) | -2.96
37 | CCCCNC(=S)N(C)/N=C/c1ccc(OCC(=O)Nc2ccc(OC)cc2)c(OC)c1 | 3.26
38 | O=C(COc1ccccc1)NC1CCSC1=O (centres unmarked) | -42
39 | NS(=O)(=O)c1ccc(CCNC(=O)C2CCN(S(=O)(=O)c3cnc[nH]3)CC2)cc1 | -3.52
40 | CC(C)OP(=O)(OC(C)C)C(Nc1ccccn1)c1ccc(F)cc1 (centres unmarked) | 17.4
41 | CNC(=O)N1c2ccccc2CCc2ccccc21 | 15.3
42 | CCCC(=O)Nc1ccc(N2CCN(C(=O)c3cc4ccccc4o3)CC2)cc1 | 3.54
43 | Cc1cc(N/N=C/c2ccc3c(c2)OCO3)nc2ccccc12 | 13.8
44 | Cc1ccc(C(=O)NNC(=O)CCC(=O)Nc2cc(C)on2)cc1 | 11.8
45 | O=C(COc1coc(CN2CCCc3ccccc32)cc1=O)Nc1cccc([N+](=O)[O-])c1 | -14.1
46 | CCOC(=O)c1c(CN(C)C)n(C)c2c(O)c(N=NC(N)=O)c3ccc(Br)cc3c12.Cl | 7.1

Row | SMILES | hERG current change (%, negative = inhibition) at 1uM [%]
47 | Cn1c(=O)c2c(nc(SCC(=O)c3ccccc3F)n2C)n(C)c1=O | 6.42
48 | COc1ccc(-c2cc3cccc(OC)c3oc2=O)cc1 | 14.6
49 | Cc1ccccc1NC(=O)OCc1ccccc1 | 9.41
50 | O=C(NC1CCCc2ccccc21)c1cccnc1 (centres unmarked) | 7.88
51 | C=CCc1cc(Cl)ccc1OCCN1CC(C)OC(C)C1.O=C(O)C(=O)O (centres unmarked) | -11.1
52 | COc1ccc(-c2cc(=O)oc3c(C)c(OCC(=O)N(C)C)ccc23)cc1 | 6.74
53 | COc1ccccc1-n1nnnc1SCC(=O)NCC1CCCO1 (centres unmarked) | 12
54 | CCC(=O)NC(=S)Nc1ccc(-c2nc3ccccc3s2)cc1 | -2.83
55 | O=C1OCCC1NC1=NCCC1 (centres unmarked) | 2.69
56 | Cc1noc(C)c1S(=O)(=O)N1CCC(C(=O)NCCc2ccc(S(N)(=O)=O)cc2)CC1 | 13.1
57 | Nc1nncn1C(=O)CCCOc1ccc(Cl)cc1Cl | 5.93
58 | Cc1ccc(Nc2nnc(SCC(=O)c3cc4ccccc4o3)s2)cc1C | 8.59
59 | COc1ccc(C(=O)c2ccccc2)c2c(O)ccc(C(=O)c3ccccc3)c12 | 16.5
60 | CC(=O)CCc1oc2ccc(C)cc2c1Cc1ccccc1 | 11.8
61 | O=C(NO)c1ccc(OC(F)F)cc1 | 2.03
62 | COCC(=O)NC1CC(C)(C)Cc2c1cnn2-c1ccc(F)cc1 (centres unmarked) | -16.7
63 | Cc1cc2ccccc2n2c(SCC(=O)NCC3CCCO3)nnc12 (centres unmarked) | 5.94
64 | Clc1ccccc1/C=N/NC1=Nc2cccc3cccc1c23 | 23.9
65 | Cc1ccsc1/C=N/Nc1nc(=O)[nH]nc1C | 10.1
66 | Cc1cccn2c(=O)c(C=Nc3ccccc3)c(NCc3ccco3)nc12 | 9.3
67 | Cc1cc(OCC(=O)NCC2CCC(C(=O)O)CC2)c2c(C)c(C)c(=O)oc2c1 (centres unmarked) | 14.6
68 | COc1ccc(NC(=O)CN2C(=O)NC(C)(C3CC3)C2=O)cc1S(=O)(=O)N1CCCCC1 (centres unmarked) | 8
69 | O=C(O)c1ccn(COc2ccc(Br)cc2)n1 | 17.7

Row | SMILES | hERG current change (%, negative = inhibition) at 1uM [%]
70 | COc1ccc(C(=O)N2CCN(S(=O)(=O)N3CCOCC3)CC2)cc1OC | 13.1
71 | O=C(CCOc1ccc(F)cc1)Nc1nccs1 | 7.16
72 | Cc1c(Cl)cccc1N=Cc1ccc([N+](=O)[O-])s1 | 9.36
73 | Cc1ccc(NC(=O)CN(C)CC(=O)Nc2c(C)cccc2C)c(Br)c1 | 9.54
74 | COc1cccc(CNS(=O)(=O)c2ccc3c(c2)NC(=O)CS3)c1 | 3.55
75 | COc1ccc(S(=O)(=O)NCCc2nnc3ccc(SCc4cccnc4)nn23)cc1 | 4.46
76 | CCOC(=O)c1[nH]c(C)c(C(=O)OCC(=O)N2c3ccccc3CC2C)c1C (centres unmarked) | -1.32
77 | C=CCC1=C/C(=C\c2c(N)n3nc(CC(=O)N4CCCC4)sc3nc2=O)C=C(OC)C1=O | 14
78 | CN(CCO)c1ccc([N+](=O)[O-])cc1C(=O)O | -5.43
79 | Cc1ccc(C(=O)N2CCN(c3ccc(NC(=O)c4cc(C)cc(C)c4)cc3)CC2)cc1 | 7.12
80 | Cc1ccc(CS(=O)(=O)Cc2ccc(C(=O)NCCc3ccccc3)o2)cc1 | 9.82
81 | COc1nccnc1NS(=O)(=O)c1ccc(NC(=S)NC(=O)c2ccc(F)c(F)c2)cc1 | 2.42
82 | COc1ccc(CCNC(=O)C2CCN(S(=O)(=O)c3ccc4nc5c(c(C(=O)O)c4c3)CCCC5)CC2)cc1OC | 11.5
83 | Cc1cccc(Nc2nnc(SCC(=O)Nc3ncc(C(F)(F)F)cc3Cl)s2)c1C | 3.17
84 | C=CCc1cc2c(oc(=O)c3ccccc32)c(C)c1O | 7.3
85 | CCC(C)NC(=O)CNC(=S)N(Cc1ccccc1)Cc1cccnc1 (centres unmarked) | -5.2
86 | NC(=O)c1ccsc1NC(=O)Cc1ccc([N+](=O)[O-])cc1 | -0.898
87 | CCOc1cc(/C=C2\SC(=Nc3ccc(F)cc3)N(c3ccc(F)cc3)C2=O)ccc1OCC(=O)O | -5.11
88 | O=C(Nc1ccc(Oc2cccnc2)cc1)c1ccc([N+](=O)[O-])cc1 | -2.91
89 | O=C(CSc1ccc(-c2ccccn2)nn1)N1CCCC1 | 7.16
